The source gives no read counts; variants with many changes may rest on few reads.
B1: CPEB3 Ribozyme (parent)
chain: UAACAGGGGGCCACAGCAGAAGCGUUCACGUCGCAGCCCCUGUCAGAUUCUGGUGAAUCUGCGAAUUCUGCUGUAUAUCUC

Variants of: B1
Experiment: self-cleavage, relative activity (ratio to wild type); higher = more cleavage; in vitro, sequencing
Procedure, shortened: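 For each CPEB3 ribozyme variant, relative activity is its cleaved/total read fraction divided by the unmutated ribozyme's. Barcoded error-prone PCR libraries were transcribed by T7 RNA polymerase (5 hours, 37°C) and held in DNase I for 15 min before an EDTA stop, with cleavage occurring throughout. Template-switching reverse transcription and Illumina sequencing were used to read the RNAs. A 5-read minimum applied, and results are the mean of three batches.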
U31A A35G U51A gave a self-cleavage of 1.27. G30A C38A A65C gave a self-cleavage of 0.12. G30A C34G U72C A75G gave a self-cleavage of 0.13. In the case of A28U U51C A64G U72G U80C, the self-cleavage is reported as 0.29. G30A A45G U67A gave a self-cleavage of 0.12. Work on C29U U31A A56G A75G yielded a self-cleavage of 0.12. Variant G30U U41C A45U U54G C62U A64U has a self-cleavage of 0.1. In the case of C29U A35G A45G U66C, the self-cleavage is reported as 0.43. A28U A45U U51A A56G A77U showed a self-cleavage of 0.13. With G30U A45U A75U the self-cleavage was 0.1. A28U C29U A56G A57G U69C U78A gave a self-cleavage of 0.08. C29U A35U U80G gave a self-cleavage of 0.19. Work on C29G G33A U48C yielded a self-cleavage of 0.07. With C29U A47U U48C U54C A56G U60A A64G the self-cleavage was 0.11. With C29U C34U A45U U58C U67C the self-cleavage was 0.1. Variant A28U C32U C39U has a self-cleavage of 0.14. U31A A47C U49C A64G G73A gave a self-cleavage of 0.08. Work on A28U C29A A45U U51C U67A U69A U80C yielded a self-cleavage of 0.1. In the case of A28U U49C A57G U72C, the self-cleavage is reported as 0.16. With A28U U41C A47U G70A U72C the self-cleavage was 0.07. Work on C29U U31A U76A yielded a self-cleavage of 0.21. G30C U31A G33A U43C G52C G55C gave a self-cleavage of 0.07. Work on U31A A47U U74C yielded a self-cleavage of 0.7. A28U U43A U69C gave a self-cleavage of 0.67. C29A A35G U51C U58C U66A U76C gave a self-cleavage of 0.21. With A28U G33U U51C G53A U76C U80A the self-cleavage was 0.06. For A28U G30C U43A A45U, the self-cleavage was 0.08. C29U A35G A77G gave a self-cleavage of 1.25. C29A A45C U49A C50G gave a self-cleavage of 0.12. A28U U49A C79U showed a self-cleavage of 0.57. With G30U C40A C44A A45C A65G U72C the self-cleavage was 0.07. For A28U U48A G70A U76C, the self-cleavage was 0.06. Variant A28U C40A A65G U69C has a self-cleavage of 0.1. Work on A28U A56G U78C C79G yielded a self-cleavage of 0.85. A28U A47G U69C U80C gave a self-cleavage of 0.38. In the case of C29G A35G A65U U69A U72A, the self-cleavage is reported as 0.1. Variant G30A A45G A57U U80C has a self-cleavage of 0.07. Variant U31A A35U A45G has a self-cleavage of 0.08. Work on A28U U31A A56G U80C yielded a self-cleavage of 0.44. Work on A28U U48C U51G U69C yielded a self-cleavage of 0.15. Variant A28U U48C U54C has a self-cleavage of 0.39. C29U A35G C39U U66A gave a self-cleavage of 0.62. In the case of C29U U41C U60A G61A G70U, the self-cleavage is reported as 0.1. For C29U U31C A35G A45C, the self-cleavage was 0.13. G30A U54G A56U showed a self-cleavage of 0.14. With C29A A35U A57G G61C U67A the self-cleavage was 0.04. For G30A U43C A56U U72C, the self-cleavage was 0.24. Variant A28U A64G U67C has a self-cleavage of 0.16. U31A A35U A45G U54C gave a self-cleavage of 0.11. Variant A28U U51C C59U has a self-cleavage of 0.31. G30A U31A U54C U67C gave a self-cleavage of 0.09. A28U G33C G73C U78C gave a self-cleavage of 0.08. With A28U U60C U69A U78A the self-cleavage was 0.22. For A28U U54C A77G, the self-cleavage was 0.75. G30C U31C U60A showed a self-cleavage of 0.22. In the case of G30U C44G U66C, the self-cleavage is reported as 0.12. With C29A U69A U76A U80C the self-cleavage was 0.24. Work on A28U U31C U43C yielded a self-cleavage of 0.24. Work on A28U G46C U48C G52A A57C A65C yielded a self-cleavage of 0.07. Variant G30A A45C U69C has a self-cleavage of 0.12. Work on A28U U41A A75U yielded a self-cleavage of 0.08. In the case of C29U C32U A35C, the self-cleavage is reported as 0.05. Work on A28U U43C U58C U69C yielded a self-cleavage of 0.16. With A28U A47G U72C A77G the self-cleavage was 0.92. Work on U31A A35G C40A U51A yielded a self-cleavage of 0.16. G30C U31C U66C gave a self-cleavage of 0.18. In the case of U31A A35C U67C A77G, the self-cleavage is reported as 0.12. With U31A A35U A45G U60C U72C the self-cleavage was 0.22. Variant C29U U58C U74C U76C has a self-cleavage of 0.58. For A28U U41A U51A A75G A77U, the self-cleavage was 0.09. Variant U31A A45G A56U U80C has a self-cleavage of 0.22. For G30A U31A U80A, the self-cleavage was 0.42. Work on C29U C34A U60A yielded a self-cleavage of 0.05. G30A U48C U69C gave a self-cleavage of 0.18. For C29U A56U U69C, the self-cleavage was 0.38. In the case of A28U A47G U49C A57G U74C, the self-cleavage is reported as 0. With C29U G33C U41A G53U A75G the self-cleavage was 0.05. Work on C29U C40U U43C U58C yielded a self-cleavage of 0.23. Variant U31A A35U G53A A64G has a self-cleavage of 0.25. For A28U U31C C40U U43A U54C U78C, the self-cleavage was 0.16. Variant C29G G33A A57U U58C U76C has a self-cleavage of 0.09. A28U U31A U49A A65G showed a self-cleavage of 0.18. In the case of C29A A45C U74G, the self-cleavage is reported as 0.15. For G30A U49C A56G U60C, the self-cleavage was 0.56. With A28U U54C U60C C81A the self-cleavage was 0.21. A28U C44A A45U U51C U60C U78C gave a self-cleavage of 0.2. In the case of C29U U43G U48C, the self-cleavage is reported as 0.22. In the case of A28U U48C A57G, the self-cleavage is reported as 0.95. With A28U U41A U49C U58C C59U the self-cleavage was 0.08. Variant G30C G46C A57U G63A has a self-cleavage of 0.14. A28U A47U U60C A64G gave a self-cleavage of 0.16. With A28U G36A U49C the self-cleavage was 0.37. For C29G U48C U69C, the self-cleavage was 0.08. Variant A28U U31C U78C has a self-cleavage of 0.55. Work on G30A U43G U72G A77G yielded a self-cleavage of 0.05. A28U U54G U72C gave a self-cleavage of 0.88. For C29G U58C A65G U69C U76C, the self-cleavage was 0.18. G30A C50A U51C U54C U72C showed a self-cleavage of 0.08. G30U U41C U49A U67C U80C showed a self-cleavage of 0.24. In the case of C29G C37U A64G, the self-cleavage is reported as 0.08. G30A A35U U48C U54A A57G U58A showed a self-cleavage of 0.08. Variant U31A A35G A45U U51A A56U C81U has a self-cleavage of 0.26. Variant U31A A35G A45G U80C has a self-cleavage of 1.15. In the case of C29U U31C A64U, the self-cleavage is reported as 0.21. A28U A45G U78A gave a self-cleavage of 0.66. Variant G30A C40A U51C has a self-cleavage of 0.13. Work on G30A U31C A45G C71G yielded a self-cleavage of 0.15. With C29G A35G A64G the self-cleavage was 0.49. G30U U51A A57G U72C gave a self-cleavage of 0.07. In the case of A28U U51A A65G, the self-cleavage is reported as 0.36. C29G A35U U72C gave a self-cleavage of 0.19. Variant G30A C71A U72C U74C has a self-cleavage of 0.06. Work on A28U U48C A64G U76A A77G yielded a self-cleavage of 0.14. G30U U41A U48C G55A gave a self-cleavage of 0.18. Work on G30C A56G A75G A77G yielded a self-cleavage of 0.06. Work on U31A A47U U66C C71U yielded a self-cleavage of 0.16. In the case of C29U A45G U51C U69C, the self-cleavage is reported as 0.08. G30A U48C U51C showed a self-cleavage of 0.26. For G30A C34G C44U A64G U69A G73A, the self-cleavage was 0.06. Work on G30A U31A A56G yielded a self-cleavage of 0.18. Work on A28U A47G G61U U67A yielded a self-cleavage of 0.16. With C29A U74A A77G the self-cleavage was 0.59. A28U U31C A35U U49C A64U showed a self-cleavage of 0.11. In the case of G30C A45U U51C U58A U72C, the self-cleavage is reported as 0.29. A28U U54C C59A U69A gave a self-cleavage of 0.18. In the case of A28U A64G A75U, the self-cleavage is reported as 0.87. With U31A A56G U60C the self-cleavage was 0.23. A28U U31C U80C showed a self-cleavage of 0.73. C29U U31C A56U G73A showed a self-cleavage of 0.12. With C29U U67C U78C the self-cleavage was 0.09. Variant A28U U51C U78C has a self-cleavage of 0.87. In the case of C29G A45G U80A, the self-cleavage is reported as 0.61. A28U C38A U41C A47G U54A C59A U66C showed a self-cleavage of 0.06. Variant G30A C37U U43C has a self-cleavage of 0.16. In the case of A28U G36U A45G, the self-cleavage is reported as 0.15. U31A A35G G63A U69C U76A showed a self-cleavage of 0.89. Work on A28U A57G U72A yielded a self-cleavage of 0.5. Variant A28U A57G A64G has a self-cleavage of 0.29. C29G U49C U51A U69C gave a self-cleavage of 0.15. Variant G30U G42C U49C G52A has a self-cleavage of 0.2. Variant C29G A64G U67C has a self-cleavage of 0.05. With C29U G33A U43C U51A U66C the self-cleavage was 0.14. With G30C A45C U51C U54A U74A the self-cleavage was 0.08. Work on C29G A45U U72C yielded a self-cleavage of 0.14. A28U U43C A47U U51C U60G A75G gave a self-cleavage of 0.07. In the case of A28U U31C C40U U78A, the self-cleavage is reported as 0.25. Variant C29U U60C U66C has a self-cleavage of 0.12. A28U U49C U60C showed a self-cleavage of 0.41. Variant A28U U31A U67C U80C has a self-cleavage of 0.07. For U31A A47G C71A U80C, the self-cleavage was 0.15. For A28U U60C U74C, the self-cleavage was 0.86. For G30A A56G A64G, the self-cleavage was 0.17. U31A A35G A45C U78A showed a self-cleavage of 0.54. Work on G30A A45G U54A U67C U72C yielded a self-cleavage of 0.11. In the case of A28U U49C A57G A64U U80C, the self-cleavage is reported as 0.13. With A28U U72C U78A the self-cleavage was 1.11. A28U U31C A65G gave a self-cleavage of 0.13. Variant C29U U43C U66A U69A has a self-cleavage of 0.04. For G30U U49C A57G U58C A65G, the self-cleavage was 0.12. Work on U31A A35G C40G U43C U69C U80C yielded a self-cleavage of 0.07. Variant C29U U41A A75G A77U has a self-cleavage of 0.43. For C29U C39G A64U U67C, the self-cleavage was 0.07. For C29U A35U U66C, the self-cleavage was 0.16. Variant G30A C38A G61A A65U has a self-cleavage of 0.1. For C29U A45G C71U U72C A75G, the self-cleavage was 0.07. With A28U U48C U60C U67C A75U the self-cleavage was 0.2. In the case of C29U C50G U60G U78A, the self-cleavage is reported as 0.13.

Reference: the RNAGym collection of RNA variant scans (doi:10.1093/nar/gkz1192)
